# Test results: PubChem BioAssay AID602332 (National Center for Advancing Translational Sciences (NCATS), 2012)
# Where “and” joins values, the source holds several entries; their conditions need not be identical. Equal entries are not always repeated. Among all 420,000 compounds or so, about 75 (0.02%) were called active. This list was built around the results that the source calls inconclusive (neither active nor inactive); the mix of calls is not that of the screen. Calls come from the whole dose curve; as a rule, active = well fitted activation curve with a large enough effect; inconclusive = small, poorly fitted or top-dose-only effect; inactive = no such curve, though single readings can be large or run the other way. Potencies of inconclusive entries are doubtful fits and often do not repeat.
# Test: qHTS for Inducers of the Endoplasmic Reticulum Stress Response (ERSR) in Human Glioma: qHTS; note: nearly all actives have a fitted effect of over 35% in size; for activation: % of control where 0% means no effect
# Settings: U87-MG GRP78 promoter luciferase reporter, 16 h; activation: stronger effect = higher value
# Procedure, shortened: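 ERSR induction read as luciferase luminescence (Bright-Glo, 10 min at room temperature) in stably transfected human U87-MG glioma cells exposed to compounds for 16 h, using GRP78 as sensor.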
# Potency is the fitted concentration of half-maximal effect; tags give direction and shape of the fitted curve.
SMILES,activation,Potency
Cc1cccc(-n2nnc(C(=O)Nc3ccc(F)cc3)c2N)c1,inactive: -0.166%,
COc1ccc(NC(=O)COC(=O)CN2C(=O)C3CCCCC3C2=O)cc1OC (centres undefined),,"inconclusive: 14.1 µM [activator, single point]"
COc1ccc(CNc2ccc(-c3ccc(OC)cc3)nn2)cc1,,"inconclusive: 28.2 µM [activator, single point]"
CC(C)N(Cc1nc(-c2ccccc2)no1)S(=O)(=O)c1ccccc1,inactive: -1.91%,
Cc1ccc(O)c(NC(=O)c2cc(-c3ccccc3Cl)on2)c1,,"inconclusive: 50.1 µM [activator, single point]"
COc1ccc(-c2coc3cc(O)ccc3c2=O)cc1,,"inconclusive: 12.6 µM [activator, single point]"
O=C(CCc1nnc(-c2ccc(-c3ccccc3)cc2)o1)N1CCCCC1,inactive: -8.12%,
O=C(CCc1nc2ccccc2c(=O)[nH]1)Nc1nnc(SCc2ccccc2F)s1,,"inconclusive: 35.5 µM [activator, partial curve, poor fit]"
Cc1cn2c(N)c(/C=C3\C=Nc4ccccc43)c(=O)nc2s1,,"inconclusive: 5.62 µM [activator, partial curve, poor fit]"
CCN(CC)C(=O)Oc1ccc2c(c1)O/C(=C\c1ccco1)C2=O,inactive: 5.98%,
CC1(C)CCC(c2ccc(Cl)cc2)=C(CN2CCN(c3ccc(C(=O)NS(=O)(=O)c4ccc(N[C@H](CCN5CCOCC5)CSc5ccccc5)c(S(=O)(=O)C(F)(F)F)c4)cc3)CC2)C1,,"inconclusive: 22.4 µM [activator, single point]"
CCC(=O)Nc1ccccc1C(=O)OCC(=O)c1ccc2ccccc2c1,,"inconclusive: 11.2 µM [activator, partial curve, poor fit]"
O=C(CN1CCSc2ccccc21)N1CCCCC1,,"inconclusive: 2.82 µM [activator, full curve, poor fit]"
CN1C(=O)/C(=C/c2cccc(Cl)c2)Sc2ccc(C(=O)N3CCCC3)cc21,inactive: -3.21%,
CCOC(=O)c1[nH]c(C)c(/C(C)=N\O)c1C,,"inconclusive: 28.2 µM [activator, single point]"
Nc1c(S(=O)(=O)c2ccccc2)c2nc3ccccc3nc2n1CCN1CCOCC1,inactive: -5.31%,
COc1cc(O)c2c(=O)cc(-c3ccc(OC)c(-c4c(O)cc(O)c5c(=O)cc(-c6ccc(O)cc6)oc45)c3)oc2c1,,"inconclusive: 28.2 µM [activator, single point]"
CC1CC=CC2C1C(=O)N(Cc1ccccc1)C2c1ccc2ccccc2c1Br (centres undefined),,"inconclusive: 28.2 µM [activator, single point]"
Cc1cc(C(F)(F)F)n(-c2nc(C(=O)NNS(=O)(=O)c3ccccc3[N+](=O)[O-])cs2)n1,,"inconclusive: 50.1 µM [activator, single point]"
O=C(CCS(=O)(=O)c1nc(-c2ccc3c(c2)OCO3)cc(C(F)(F)F)n1)Nc1ccccc1F,,"inconclusive: 20 µM [activator, single point]"
Cc1cccc(NC(=O)c2cc(-c3cc(C)cc(C)c3O)n[nH]2)c1,,"inconclusive: 44.7 µM [activator, partial curve, poor fit]"
CN(C)S(=O)(=O)c1ccc2c(c1)nc(CCC(=O)NCc1ccc(Cl)cc1)n2C,inactive: 0.257%,

SMILES,activation,Potency
N#C/C(=C\c1coc2ccc(O)cc2c1=O)C(=O)Nc1nc2ccccc2s1,,"inconclusive: 12.6 µM [activator, partial curve, poor fit]"
CCC(C)N(C(=O)Cn1nnc2ccccc21)C(C(=O)NCc1ccco1)c1cccc(OC)c1 (centres undefined),inactive: -1.38%,
CCOC(=O)/C=C/c1ccc(C(F)(F)F)cc1S(=O)(=O)NC(C)(C)C,,"inconclusive: 50.1 µM [activator, single point]"
CCCCCc1c2c(cc(O)c1C(=O)O)OC(=O)c1c(cc(OC)cc1C(=O)CCCC)O2,,"inconclusive: 15.8 µM [activator, single point]"
CCOC(=O)Nc1ccc2c(c1)N(C(=O)CCN(C)C)c1ccccc1CC2,,"inconclusive: 28.2 µM [activator, partial curve, poor fit]"
NC(=NC1C2CC3CC(C2)CC1C3)Nc1ccc(I)cc1 (centres undefined),,"inconclusive: 11.2 µM [activator, full curve, poor fit]"
CCCc1c(C)c2ccc(O)c(CN3CCN(c4ccc(F)cc4)CC3)c2oc1=O,inactive: -1.05%,
CCOC(=O)C1=C(O)c2ccccc2C(=O)/C1=C\c1ccc(CC)cc1,,"inconclusive: 28.2 µM [activator, single point]"
Oc1ccc(N=Cc2ccc(O)c(O)c2)cc1,inactive: 10.4%,
Cc1ccc(Sc2ccc(NC(=O)CCl)cc2)cc1C,,"inconclusive: 12.6 µM [activator, single point]"
COc1ccc(C(=O)NCC(=O)N/N=C/c2ccc([N+](=O)[O-])o2)cc1OC,,"inconclusive: 50.1 µM [activator, partial curve, poor fit]"
CCOC(=O)CSc1nnc(CNc2ccc(Cl)cc2)n1-c1ccccc1,inactive: -0.896%,
N#CC(=C(O)COC(=O)c1ccc2c(c1)OCCO2)c1nc2ccccc2[nH]1,,"inconclusive: 50.1 µM [activator, single point]"
CCNC(=O)c1cc2c(=O)n3cccc(C)c3nc2n(CCc2ccccc2)c1=N,,"inconclusive: 28.2 µM [activator, single point]"
Nc1nnc(Cc2ccc(Cl)c(Cl)c2)s1,,"inconclusive: 39.8 µM [activator, partial curve, poor fit]"
O=C(c1ccc2c(c1)CCN2S(=O)(=O)c1ccccc1)N1CCN(c2ccc(F)cc2)CC1,inactive: 1.33% and inactive: -0.582%,
COc1ccc(/C=N/NC(=O)COc2ccc(Cl)cc2Cl)cc1Cn1nc(C)cc1C,,"inconclusive: 39.8 µM [activator, partial curve, poor fit]"
Cc1cc(C)cc(-n2c(C)cc(/C=N/NC(=O)CSc3ncccn3)c2C)c1,,"inconclusive: 63.1 µM [activator, single point]"
Cc1ccnc2cc(Cl)cc(Cl)c12,inactive: 0.593%,
COc1cccc(Oc2ccc(S(=O)(=O)N3CCCC3)cc2[N+](=O)[O-])c1,inactive: -1.97%,
COc1ccc(C)cc1Nc1n[n+](-c2ccccc2)c(-c2ccc(SC)cc2)s1,inactive: -1.95%,
Cc1ccc(OCC(O)CN2CCC(Cc3ccccc3)CC2)c(C)c1 (centres undefined),inactive: -5.8%,

SMILES,activation,Potency
Clc1cccc(CN2CCc3c([nH]c4ccccc34)C2)c1Cl,,"inconclusive: 50.1 µM [activator, single point]"
COC(=O)C(=C/C(C)=C/c1cccs1)C(=O)OC,,"inconclusive: 63.1 µM [activator, single point]"
CCN(CC)c1ccc(/C=N/NC(=S)NCc2ccccc2)cc1,inactive: -4.36%,
COc1ccc(NC(=O)C2CC(=O)N(CCc3ccc(Cl)cc3)C2)cc1 (centres undefined),inactive: -2.6%,
CC(C)(C)N1C(=O)c2ccc(C(=O)Nc3ccc(-c4nc5ccccc5[nH]4)cc3)cc2C1=O,,"inconclusive: 50.1 µM [activator, single point]"
Cc1ccc(OCC(=O)N/N=C/C=C/c2ccco2)c(Br)c1,,"inconclusive: 28.2 µM [activator, single point]"
O=C(COC(=O)/C=C/c1ccc(F)cc1)Nc1cccc(S(=O)(=O)N2CCCC2)c1,inactive: 0.336%,
COCCNC(=O)c1cc2c(s1)-c1ccc(Cl)cc1SC2,,"inconclusive: 50.1 µM [activator, single point]"
O=C(Nc1nc(-c2ccccn2)cs1)c1ccc(Br)s1,,"inconclusive: 5.01 µM [activator, single point]"
COC(=O)c1sc(NC(=O)c2ccc([N+](=O)[O-])o2)c(C#N)c1C,,"inconclusive: 14.1 µM [activator, full curve, poor fit]"
O=C(Cc1ccsc1-c1ccccc1)NO,,"inconclusive: 35.5 µM [activator, partial curve, poor fit]"
CC1=C(C(=O)Nc2ccccc2)C(c2ccco2)C(C#N)=C(SCC(=O)OC(C)C)N1 (centres undefined),,"inconclusive: 28.2 µM [activator, single point]"
Cc1cc(C)cc(NC(=O)CCc2nc3sc4c(c3c(=O)[nH]2)CCCC4)c1,,"inconclusive: 10 µM [activator, full curve, poor fit]"
Cc1ccc(C2=NNC(c3cccc(F)c3)S2)cc1 (centres undefined),inactive: -5.13%,
COc1cccc(C(=O)/C=C/c2ccc(OCC#N)c(OC)c2)c1,inactive: -7.6%,
CC(C)(C)c1cc(NCc2ccccn2)n2ncc(-c3ccccc3)c2n1,,"inconclusive: 11.2 µM [activator, single point]"
CCOC(=O)NC1(NC(C)C)Oc2ccccc2O1,,"inconclusive: 39.8 µM [activator, partial curve, poor fit]"
COC(=O)COc1ccc(-c2nn(C)c(=O)c3ccccc23)cc1,,"inconclusive: 22.4 µM [activator, single point]"
O=C1CC(c2ccccc2O)Oc2ccc(O)cc21 (centres undefined),,"inconclusive: 10 µM [activator, partial curve, poor fit]"
CC/C(=N\Nc1ccccc1[N+](=O)[O-])c1ccc(O)cc1,,"inconclusive: 11.2 µM [activator, partial curve, poor fit]"
